Results: ChEMBL document CHEMBL5606460, “ASAP - DENV-2 NS2B-NS3 protease fluorescence single point” (2024)
Out of some 2,000 compounds screened, about 110 (5.5%) showed an effect of 50% or more. This is one part of the list.

Target: Genome polyprotein (dengue virus type 2) (UniProt P29990)
[1] = Thailand/16681/1984, Concentration 25.0 uM, Number of replicates 1.0

`Cc1cnccc1NC(=O)c1cnn2cc[nH]c(=O)c12` showed an inhibition (Thailand/16681/1984, Concentration 49.5 uM, Number of replicates 2.0, Standard deviation 4.773555265504345 %) of -2.07%, an inhibition (Thailand/16681/1984, Concentration 99.01 uM, Number of replicates 2.0, Standard deviation 2.7954488173666587 %) of -0.411% and an inhibition (Thailand/16681/1984, Concentration 198.0 uM, Number of replicates 2.0, Standard deviation 2.947044878020462 %) of 1.2%.

In the case of `O=Cc1ccc(N2CCC(C(=O)N[C@H]3CC4(CCCC4)Oc4ccccc43)CC2)cc1`, the inhibition [1] is reported as 3.14%.

`Cc1cc(C)n(CCCNC(=O)C2CCN(c3ccc(C=O)cc3)CC2)n1` was tested, and the inhibition [1] was 12.7%.

For `CNC(=O)c1cc(Cl)ccc1NS(=O)(=O)c1cccc(Oc2ccccc2)c1`, the inhibition (Thailand/16681/1984, Concentration 49.5 uM, Number of replicates 2.0, Standard deviation 1.273206391645472 %) was 8.45%, the inhibition (Thailand/16681/1984, Concentration 99.01 uM, Number of replicates 2.0, Standard deviation 0.33776821571418564 %) was 23.8% and the inhibition (Thailand/16681/1984, Concentration 198.0 uM, Number of replicates 2.0, Standard deviation 0.06600533651594093 %) was 89.9%.

With `CCc1nc(CNC(=O)[C@]2(c3ccc(F)cc3)CCCNC2)n[nH]1` the inhibition (Thailand/16681/1984, Concentration 49.5 uM, Number of replicates 2.0, Standard deviation 0.49799700461423274 %) was -1.23%, the inhibition (Thailand/16681/1984, Concentration 99.01 uM, Number of replicates 2.0, Standard deviation 0.6482125452450617 %) was -1.25% and the inhibition (Thailand/16681/1984, Concentration 198.0 uM, Number of replicates 2.0, Standard deviation 1.0139545093997464 %) was -1.41%.

`O=C(O)c1cccc(NC(=O)c2cccs2)c1` showed an inhibition (Thailand/16681/1984, Concentration 49.5 uM, Number of replicates 2.0, Standard deviation 0.598805970566795 %) of -0.317%, an inhibition (Thailand/16681/1984, Concentration 99.01 uM, Number of replicates 2.0, Standard deviation 0.5844804411504043 %) of 1.75% and an inhibition (Thailand/16681/1984, Concentration 198.0 uM, Number of replicates 2.0, Standard deviation 0.39251882639117147 %) of 2.34%.

Molecule `CC(C)(CNC(=O)C1CCN(c2ccc(C=O)cc2)CC1)c1cccc(Cl)c1` has an inhibition [1] of 10.4%.

`O=C(O)c1cccc(NC(=O)c2ccncc2)c1` was tested, and the inhibition (Thailand/16681/1984, Concentration 49.5 uM, Number of replicates 2.0, Standard deviation 1.179943882139058 %) was -0.761%, the inhibition (Thailand/16681/1984, Concentration 99.01 uM, Number of replicates 2.0, Standard deviation 0.8155985855186833 %) was -0.242% and the inhibition (Thailand/16681/1984, Concentration 198.0 uM, Number of replicates 2.0, Standard deviation 1.2181452324519455 %) was 1.11%.

In the case of `Cc1cc(C)nc(CCNC(=O)C2CCN(c3ccc(C=O)cc3)CC2)n1`, the inhibition [1] is reported as 10.6%.

For `CC(C)(CO)NC(=O)c1cc(Cl)cc(NC(=O)c2ccc(CO)s2)c1`, the inhibition (Thailand/16681/1984, Concentration 49.5 uM, Number of replicates 2.0, Standard deviation 0.042660723961363105 %) was 0.416%, the inhibition (Thailand/16681/1984, Concentration 99.01 uM, Number of replicates 2.0, Standard deviation 0.04734288058271109 %) was 2.52% and the inhibition (Thailand/16681/1984, Concentration 198.0 uM, Number of replicates 2.0, Standard deviation 0.687253929663976 %) was 3.51%.

`N#Cc1cccc(NC(=O)[C@@H](NC(=O)c2ccc(Oc3ccc(C(F)(F)F)cc3)cc2)c2ccc(OCc3ccccc3)cc2)c1` was tested, and the inhibition (Thailand/16681/1984, Concentration 49.5 uM, Number of replicates 2.0, Standard deviation 0.9263674997821656 %) was -5.09%, the inhibition (Thailand/16681/1984, Concentration 99.01 uM, Number of replicates 2.0, Standard deviation 0.4269393146330484 %) was -4.04% and the inhibition (Thailand/16681/1984, Concentration 198.0 uM, Number of replicates 2.0, Standard deviation 0.9636779131327375 %) was -5.31%.

`O=Cc1ccc(N2CCC(C(=O)NCc3ccc(Br)cn3)CC2)cc1` showed an inhibition [1] of 13.7%.

Molecule `CC(C)Nc1nc2cc(NCc3cccc(C(N)=O)c3)ccc2[nH]1` has an inhibition (Thailand/16681/1984, Concentration 49.5 uM, Number of replicates 2.0, Standard deviation 0.023235641877752903 %) of -0.517%, an inhibition (Thailand/16681/1984, Concentration 99.01 uM, Number of replicates 2.0, Standard deviation 0.06423980503181957 %) of 1.24% and an inhibition (Thailand/16681/1984, Concentration 198.0 uM, Number of replicates 2.0, Standard deviation 0.8255495407458023 %) of 3.31%.

In the case of `Cc1cc(CO)c2cccc(Cc3cccc(NC(=O)[C@@H](N)CCN)c3)c2n1`, the inhibition (Thailand/16681/1984, Concentration 49.95 uM, Number of replicates 2.0, Standard deviation 2.182317285773337 %) is reported as -7.99% and the inhibition (Thailand/16681/1984, Concentration 99.9 uM, Number of replicates 2.0, Standard deviation 2.5859629223182328 %) is reported as 2.16%.

`c1ccc(-n2cc(CN3CCC(c4c[nH]c5cccnc45)CC3)cn2)nc1` showed an inhibition (Thailand/16681/1984, Concentration 49.5 uM, Number of replicates 2.0, Standard deviation 0.8881344076239932 %) of -3.41%, an inhibition (Thailand/16681/1984, Concentration 99.01 uM, Number of replicates 2.0, Standard deviation 1.8098148406769592 %) of -2.75% and an inhibition (Thailand/16681/1984, Concentration 198.0 uM, Number of replicates 2.0, Standard deviation 0.240693571175166 %) of -2.36%.

In the case of `COc1cnccc1NC(=O)c1cccn(CC(C)C)c1=O`, the inhibition (Thailand/16681/1984, Concentration 49.5 uM, Number of replicates 2.0, Standard deviation 2.765243941206539 %) is reported as 11.3%, the inhibition (Thailand/16681/1984, Concentration 99.01 uM, Number of replicates 2.0, Standard deviation 1.9875860330110593 %) is reported as 23.2% and the inhibition (Thailand/16681/1984, Concentration 198.0 uM, Number of replicates 2.0, Standard deviation 1.4487159840884771 %) is reported as 40.5%.

`O=Cc1ccc(N2CCC(C(=O)NCc3cccc(-n4cccn4)c3)CC2)cc1` showed an inhibition [1] of 13.6%.

In the case of `Cc1cc(CO)c2cccc(Cc3cccc(C(=O)N4CCC(C(=O)O)CC4)c3)c2n1`, the inhibition (Thailand/16681/1984, Concentration 49.95 uM, Number of replicates 2.0, Standard deviation 0.11067239798039237 %) is reported as -0.531% and the inhibition (Thailand/16681/1984, Concentration 99.9 uM, Number of replicates 2.0, Standard deviation 0.04599367566818035 %) is reported as 2.3%.

`COc1cc(C(=O)O)nc(N2CCN(C(=O)OC(C)(C)C)CC2)n1` was tested, and the inhibition (Thailand/16681/1984, Concentration 49.5 uM, Number of replicates 2.0, Standard deviation 2.0948544829183176 %) was -0.321%, the inhibition (Thailand/16681/1984, Concentration 99.01 uM, Number of replicates 2.0, Standard deviation 2.2333572879074235 %) was 0.466% and the inhibition (Thailand/16681/1984, Concentration 198.0 uM, Number of replicates 2.0, Standard deviation 0.09248704437230586 %) was 3.59%.

Work on `Cc1cc(N)c2cccc(F)c2n1` yielded an inhibition (Thailand/16681/1984, Concentration 49.95 uM, Number of replicates 2.0, Standard deviation 2.207074007413848 %) of -9.77% and an inhibition (Thailand/16681/1984, Concentration 99.9 uM, Number of replicates 2.0, Standard deviation 2.035147234269057 %) of -9.31%.

`CNC(=O)c1ccc2n1CCN(S(=O)(=O)c1cc(-c3ccccc3)no1)[C@@H]2C` showed an inhibition (Thailand/16681/1984, Concentration 49.5 uM, Number of replicates 2.0, Standard deviation 0.12064611250570736 %) of 1.43%, an inhibition (Thailand/16681/1984, Concentration 99.01 uM, Number of replicates 2.0, Standard deviation 1.80969147421719 %) of 1.32% and an inhibition (Thailand/16681/1984, Concentration 198.0 uM, Number of replicates 2.0, Standard deviation 1.5133216237653713 %) of -2.32%.
